# This is one part of the list.
# B1: Epa22 (Candida glabrata) (protein)
# chain: MGSSHHHHHHSSGLVPRGSHMKRALSSQNPFGYPIGCSPQSTNVIPGLTMELYSYPIVSGTPPNCYDASYVDPEYPRTGYLKRKMIGKSTGVTGSLNYKFSVEKACMVKYGNLPAGYNYNEPLTVSNFTMLLYGYFKPQTSGIHTFFVNADDLLYINFGAGNAFDCCKREDSKFKLGEYVAYDIWHVDSSKNKVSLNLEKDVYYPIRMFFNNIGKDSSLDLSFSVNGAVEHITDFSGYLYSVPDQPDACPAPIGYDTTCK
# Key:
# Assay in all cases: glycan array binding signal (z-score within array); higher = stronger binding
# Settings in all cases: glycan notation: IUPAC condensed, linker removed
# [1] = biological target: Neu5Ac(a2-3)Gal(b1-3)GlcNAc6S
# How it was run: (§1)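 The binding signal is a Z-score computed within each array. Data were drawn from 3228 arrays in the Consortium for Functional Glycomics database, restricted to those with a known protein sequence. Scores were averaged over arrays of the same protein sequence at different concentrations or buffers, and over linkers, and negative values can be taken as non-binding.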
# [2] = biological target: Neu5Ac(a2-3)Gal(b1-3)[Fuc(a1-4)]GlcNAc
# How it was run: as §1
# [3] = biological target: Neu5Ac(a2-3)Gal(b1-3)[Fuc(a1-4)]GlcNAc(b1-3)Gal(b1-3)[Fuc(a1-4)]GlcNAc
# How it was run: as §1
# [4] = biological target: Neu5Ac(a2-3)Gal(b1-3)[Fuc(a1-4)]GlcNAc(b1-3)Gal(b1-4)[Fuc(a1-3)]GlcNAc
# How it was run: as §1
# [5] = biological target: Neu5Ac(a2-3)Gal(b1-3)[GlcNAc(b1-6)]GalNAc
# How it was run: as §1
# [6] = biological target: Neu5Ac(a2-3)Gal(b1-3)[Neu5Ac(a2-6)]GalNAc
# How it was run: as §1
# [7] = biological target: Neu5Ac(a2-3)Gal(b1-3)[Neu5Ac(a2-6)]GlcNAc(b1-3)[Fuc(a1-3)[Gal(b1-4)]GlcNAc(b1-6)]Gal(b1-4)Glc
# How it was run: as §1
# [8] = biological target: Neu5Ac(a2-3)Gal(b1-3)]Neu5Ac(a2-3)Gal(b1-4)]GlcNAc
# How it was run: as §1
# Neu5Ac(a2-3)Gal(b1-4)Glc = biological target: Neu5Ac(a2-3)Gal(b1-4)Glc
# How it was run: as §1
# [9] = biological target: Neu5Ac(a2-3)Gal(b1-4)GlcNAc
# How it was run: as §1
# [10] = biological target: Neu5Ac(a2-3)Gal(b1-4)GlcNAc(b1-2)Man
# How it was run: as §1
# [11] = biological target: Neu5Ac(a2-3)Gal(b1-4)GlcNAc(b1-2)Man(a1-3)[GlcNAc(b1-4)][Neu5Ac(a2-3)Gal(b1-4)GlcNAc(b1-2)Man(a1-6)]Man(b1-4)GlcNAc(b1-4)GlcNAc
# How it was run: as §1
# [12] = biological target: Neu5Ac(a2-3)Gal(b1-4)GlcNAc(b1-2)Man(a1-3)[Neu5Ac(a2-3)Gal(b1-4)GlcNAc(b1-2)Man(a1-6)]Man(b1-4)GlcNAc(b1-4)GlcNAc
# How it was run: as §1
# [13] = biological target: Neu5Ac(a2-3)Gal(b1-4)GlcNAc(b1-2)Man(a1-3)[Neu5Ac(a2-3)Gal(b1-4)GlcNAc(b1-2)Man(a1-6)]Man(b1-4)GlcNAc(b1-4)[Fuc(a1-6)]GlcNAc
# How it was run: as §1
# [14] = biological target: Neu5Ac(a2-3)Gal(b1-4)GlcNAc(b1-2)Man(a1-3)[Neu5Ac(a2-6)Gal(b1-4)GlcNAc(b1-2)Man(a1-6)]Man(b1-4)GlcNAc(b1-4)GlcNAc
# How it was run: as §1
# [15] = biological target: Neu5Ac(a2-3)Gal(b1-4)GlcNAc(b1-2)[Neu5Ac(a2-3)Gal(b1-4)GlcNAc(b1-4)]Man(a1-3)[GlcNAc(b1-4)][Neu5Ac(a2-3)Gal(b1-4)GlcNAc(b1-2)[Neu5Ac(a2-3)Gal(b1-4)GlcNAc(b1-6)]Man(a1-6)]Man(b1-4)GlcNAc(b1-4)GlcNAc
# How it was run: as §1
# [16] = biological target: Neu5Ac(a2-3)Gal(b1-4)GlcNAc(b1-2)[Neu5Ac(a2-3)Gal(b1-4)GlcNAc(b1-4)]Man(a1-3)[GlcNAc(b1-4)][Neu5Ac(a2-3)Gal(b1-4)GlcNAc(b1-4)Man(a1-6)]Man(b1-4)GlcNAc(b1-4)GlcNAc
# How it was run: as §1
# [17] = biological target: Neu5Ac(a2-3)Gal(b1-4)GlcNAc(b1-2)[Neu5Ac(a2-3)Gal(b1-4)GlcNAc(b1-6)]Man(a1-6)[Neu5Ac(a2-3)Gal(b1-4)GlcNAc(b1-2)Man(a1-3)][GlcNAc(b1-4)]Man(b1-4)GlcNAc(b1-4)GlcNAc
# How it was run: as §1
# [18] = biological target: Neu5Ac(a2-3)Gal(b1-4)GlcNAc(b1-3)Gal
# How it was run: as §1
# [19] = biological target: Neu5Ac(a2-3)Gal(b1-4)GlcNAc(b1-3)Gal(b1-3)GlcNAc
# How it was run: as §1
# [20] = biological target: Neu5Ac(a2-3)Gal(b1-4)GlcNAc(b1-3)Gal(b1-4)GlcNAc
# How it was run: as §1
# [21] = biological target: Neu5Ac(a2-3)Gal(b1-4)GlcNAc(b1-3)Gal(b1-4)GlcNAc(b1-2)Man(a1-3)[Neu5Ac(a2-3)Gal(b1-4)GlcNAc(b1-3)Gal(b1-4)GlcNAc(b1-2)Man(a1-6)]Man(b1-4)GlcNAc(b1-4)GlcNAc
# How it was run: as §1
# [22] = biological target: Neu5Ac(a2-3)Gal(b1-4)GlcNAc(b1-3)Gal(b1-4)GlcNAc(b1-3)Gal(b1-4)GlcNAc
# How it was run: as §1
# [23] = biological target: Neu5Ac(a2-3)Gal(b1-4)GlcNAc(b1-3)Gal(b1-4)GlcNAc(b1-3)Gal(b1-4)GlcNAc(b1-2)Man(a1-3)[Neu5Ac(a2-3)Gal(b1-4)GlcNAc(b1-3)Gal(b1-4)GlcNAc(b1-3)Gal(b1-4)GlcNAc(b1-2)Man(a1-6)]GalNAc
# How it was run: as §1
# [24] = biological target: Neu5Ac(a2-3)Gal(b1-4)GlcNAc(b1-3)Gal(b1-4)GlcNAc(b1-3)GalNAc
# How it was run: as §1
# [25] = biological target: Neu5Ac(a2-3)Gal(b1-4)GlcNAc(b1-3)Gal(b1-4)GlcNAc(b1-3)[Neu5Ac(a2-3)Gal(b1-4)GlcNAc(b1-3)Gal(b1-4)GlcNAc(b1-6)]GalNAc
# How it was run: as §1
# [26] = biological target: Neu5Ac(a2-3)Gal(b1-4)GlcNAc(b1-3)Gal(b1-4)GlcNAc(b1-6)[Gal(b1-3)]GalNAc
# How it was run: as §1
# [27] = biological target: Neu5Ac(a2-3)Gal(b1-4)GlcNAc(b1-3)Gal(b1-4)[Fuc(a1-3)]GlcNAc
# How it was run: as §1
# [28] = biological target: Neu5Ac(a2-3)Gal(b1-4)GlcNAc(b1-3)GalNAc
# How it was run: as §1
# [29] = biological target: Neu5Ac(a2-3)Gal(b1-4)GlcNAc(b1-3)[Neu5Ac(a2-3)Gal(b1-4)GlcNAc(b1-6)]GalNAc
# How it was run: as §1
binder,measurement,setting,value
B1,glycan array binding signal (z-score),[1],-0.304
same,glycan array binding signal (z-score),[2],-0.41
same,glycan array binding signal (z-score),[3],-0.333
same,glycan array binding signal (z-score),[4],-0.409
same,glycan array binding signal (z-score),[5],-0.175
same,glycan array binding signal (z-score),[6],-0.349
same,glycan array binding signal (z-score),[7],-0.356
same,glycan array binding signal (z-score),[8],-0.291
same,glycan array binding signal (z-score),Neu5Ac(a2-3)Gal(b1-4)Glc,-0.35
same,glycan array binding signal (z-score),[9],-0.324
same,glycan array binding signal (z-score),[10],-0.292
same,glycan array binding signal (z-score),[11],-0.384
same,glycan array binding signal (z-score),[12],-0.356
same,glycan array binding signal (z-score),[13],-0.315
same,glycan array binding signal (z-score),[14],-0.393
same,glycan array binding signal (z-score),[15],-0.392
same,glycan array binding signal (z-score),[16],-0.277
same,glycan array binding signal (z-score),[17],-0.386
same,glycan array binding signal (z-score),[18],-0.399
same,glycan array binding signal (z-score),[19],-0.357
same,glycan array binding signal (z-score),[20],-0.349
same,glycan array binding signal (z-score),[21],-0.254
same,glycan array binding signal (z-score),[22],-0.35
same,glycan array binding signal (z-score),[23],-0.278
same,glycan array binding signal (z-score),[24],-0.398
same,glycan array binding signal (z-score),[25],-0.323
same,glycan array binding signal (z-score),[26],-0.248
same,glycan array binding signal (z-score),[27],-0.325
same,glycan array binding signal (z-score),[28],-0.297
same,glycan array binding signal (z-score),[29],-0.257

# Reference: the supplement of paper PMC8728848
